From PubChem BioAssay AID504706 (National Center for Advancing Translational Sciences (NCATS), 2011)
Among all 320,000 compounds or so, about 200 (0.062%) were called active. Inconclusive results, whose numbers are uncertain, are shown with a selection of clear calls. Calls follow the shape of the dose curve; as a rule, active = well fitted activation curve with a large enough effect; inconclusive = small, poorly fitted or top-dose-only effect; inactive = no such curve, though single readings can be large or run the other way. Potencies of inconclusive entries are left out as doubtful fits.

assay: qHTS assay for re-activators of p53 using a Luc reporter; settings: H1299 p53-A138V BP100-luciferase reporter, luminescence, 24 h; series mostly up to 92.2 µM; also: nearly all actives have a fitted effect of over 45% in size
Method in brief: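 p53-null H1299 cells stably carrying temperature-sensitive p53-A138V and a BP100-luciferase reporter were pinned with compounds (4-point, 1:5 series) and held 24 hrs at 37 deg C. Luminescence was read 10 min after detection reagent.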
Potency is read from the fitted curve at half-maximal effect; tags tell the direction and shape of the fitted curve.

Row | Compound | Potency
1 | O=C(NNS(=O)(=O)c1ccccc1[N+](=O)[O-])c1cccc(Br)c1 | inconclusive [activator, single point]
2 | CCN(Cc1ccccc1)C(=O)c1oc2ccc(C)cc2c1C | inconclusive [activator, full curve, poor fit]
3 | COc1nn(-c2ccccc2)c(=O)c(Cl)c1Cl | inactive
4 | CN=C(c1ccco1)n1c(=S)nc(-c2ccco2)n(C)c1=S | inconclusive [activator, single point]
5 | Cc1cc(C)n(-c2nc(SCCN(C)C)c3c4c(sc3n2)CCCC4)n1 | inconclusive [activator, single point]
6 | CC(=O)N1CCN(C(=O)c2ccc(-n3c(C)ccc3C)cc2)CC1 | inconclusive [activator, single point]
7 | O=C(Nc1nc(-c2ccccc2)cs1)c1cccs1 | inconclusive [activator, partial curve, poor fit]
8 | CCn1cc([N+](=O)[O-])c(C(=O)N2N=C(c3ccc4ccccc4c3)CC2c2ccccc2O)n1 (stereo unspecified) | inconclusive [activator, partial curve, poor fit]
9 | C#CCOCCOCCOCCNc1nc(N2CCN(C(=O)CCCCCCCCCCNC(=O)[C@H](CCCCN)n3cc(CCCC(=O)O)nn3)CC2)nc(N2CCN(C(=O)CCCCCCCCCCNC(=O)[C@@H]([C@H](C)O)n3cc(C)nn3)CC2)n1 | inconclusive [activator, full curve, poor fit]
10 | Cc1cnc(NC(=O)Cc2c[nH]c3ccccc23)s1 | inconclusive [activator, single point]
11 | Cc1nn(C)cc1C(=O)Nc1ccc2c(c1)OCCO2 | inconclusive [activator, full curve, poor fit]
12 | CC(=O)Oc1c(C)cc(Cl)cc1C(=O)Nc1ccc([N+](=O)[O-])cc1Cl | inconclusive [activator, full curve, poor fit]
13 | Cc1csc(NC(=S)NC(=O)c2ccccc2)n1 | inconclusive [activator, partial curve, poor fit]
14 | Cc1c(C)n(CCc2ccccc2)c2ncnc(NCCCO)c12 | inconclusive [activator, full curve, poor fit]
15 | COc1ccc(CC(=O)Nc2cc(C)ccn2)cc1 | inconclusive [activator, partial curve]
16 | CCc1ccc(C(=O)NNc2ccccc2F)cc1 | inconclusive [activator, single point]
17 | COC(CNC(=O)c1ccc2nc(-c3ccccc3)c(-c3ccccc3)nc2c1)OC | inactive
18 | Nc1nc(-c2ccc([N+](=O)[O-])cc2)cs1 | inconclusive [activator, partial curve, poor fit]
19 | CC(NC(=O)COC(=O)C12CC3CC(CC(O)(C3)C1)C2)c1ccccc1 (stereo unspecified) | inactive
20 | O=C(COC(=O)c1ccc2c(c1)OCO2)Nc1cccc(F)c1 | inactive
21 | COCCCNC(=O)Cn1c(=O)n(CC(=O)N2CCCCC2)c(=O)c2sccc21 | inconclusive [activator, partial curve, poor fit]
22 | CCOc1ccc(N(CC(=O)NCCSCc2ccc(C)cc2)S(C)(=O)=O)cc1 | inconclusive [activator, single point]

Row | Compound | Potency
23 | Nc1nnc(SCC(=O)NCCOc2ccccc2)s1 | inactive
24 | NC(=S)N/N=C/c1coc2c(ccc3ccccc32)c1=O | inconclusive [activator, full curve, poor fit]
25 | O=C(NCc1cccnc1)NC(=O)c1ccc(Cl)cc1 | inconclusive [activator, single point]
26 | CC(C)N(CCCNC(=O)C1CCC(CNS(=O)(=O)c2ccccc2)CC1)Cc1ccccc1 (stereo unspecified) | inconclusive [activator, single point]
27 | Cc1ccc(Nc2nc(-c3ccncc3)cs2)cc1 | inconclusive [activator, full curve, poor fit]
28 | O=C(N/N=C/c1c[nH]c2ccccc12)c1sc2ccccc2c1Cl | inconclusive [activator, partial curve, poor fit]
29 | CCN(CC)S(=O)(=O)c1ccc(C)c(NC(=S)N2CCN(Cc3ccc4c(c3)OCO4)CC2)c1 | inconclusive [activator, single point]
30 | O=C(Nc1ccc(O)c(-c2nc3ccccc3o2)c1)C1(c2ccc(Cl)cc2)CCCC1 | inconclusive [activator, full curve, poor fit]
31 | CCOc1ccc(CCNC(=O)COC(=O)c2cccc(OC)c2O)cc1OCC | inactive
32 | Cc1ccc(C2=N/C(=C/N3CCOCC3)C(=O)O2)cc1 | inconclusive [activator, full curve, poor fit]
33 | COc1ccc(N=C2C(=O)N3c4c(cccc42)C(C)=CC3(C)C)cc1 | inactive
34 | COc1ccc(C2=CC(=O)OC3(CCCCC3)O2)cc1 | inactive
35 | O=C(COc1ccc(Br)cc1Br)NC(=S)Nc1cccc(CO)c1 | inconclusive [activator, partial curve, poor fit]
36 | CC1CC(C)(C)NC(=S)N1CCCC(=O)Nc1ccc2c(c1)OCCO2 (stereo unspecified) | inactive
37 | S=C(NCCc1ccccn1)NC1CCCCC1 | inconclusive [activator, partial curve, poor fit]
38 | COc1cc2c(cc1NC(=O)Nc1ccccc1)oc1ccccc12 | inactive
39 | COC(=O)c1c(-c2ccccc2)nn(-c2ccccc2)c1C(=O)OC | inconclusive [activator, single point]
40 | CCN1CCN(C(c2ccc(OC)cc2)C(O)C(=O)c2c[nH]c3ccccc23)CC1 (stereo unspecified) | inactive
41 | CCCNC(=O)c1oc2ccc3c(c2c1C)C(=O)CC(C)(C)O3 | inconclusive [activator, partial curve, poor fit]
42 | C/C(=N\NC(=O)Cc1c[nH]c2ccccc12)c1ccc2ccccc2c1 | inconclusive [activator, single point]
43 | O=C(O)c1ccc(N2N=C(c3ccccc3)CC2c2ccccc2)cc1 (stereo unspecified) | inconclusive [activator, partial curve, poor fit]
44 | CCOC(=O)Nc1ccc2c(C)cc(=O)oc2c1 | inconclusive [activator, full curve, poor fit]

Row | Compound | Potency
45 | COC(=O)/C=C/c1cnc2ccccc2c1 | inconclusive [activator, partial curve, poor fit]
46 | Cc1ccc(NC(=O)/C(Cl)=C/c2ccccc2)cc1C | inconclusive [activator, full curve, poor fit]
47 | Cc1ccc(/C(N)=N/OC(=O)COc2ccccc2Cl)cc1 | inconclusive [activator, partial curve, poor fit]
48 | COc1ccc(NC(=O)CSc2ccc3c(c2)OCCO3)cc1S(N)(=O)=O | inactive
49 | Cc1ccc(C(=O)/C=C/Nc2cccc([N+](=O)[O-])c2)o1 | inconclusive [activator, partial curve, poor fit]
50 | N#Cc1nc(-c2ccco2)oc1N1CCN(C(c2ccccc2)c2ccccc2)CC1 | inactive
51 | Cc1ccc(-n2nc3c(n2)/C(=N/O)CC/C3=N\O)cc1 | inconclusive [activator, partial curve, poor fit]
52 | CCN(CC)C(=O)C1CCCN(Cc2ccc(OC)c(C)c2C)C1 (stereo unspecified) | inconclusive [activator, partial curve, poor fit]
53 | Cc1c(C(=O)Nc2cc(F)ccc2F)sc2nc3n(c(=O)c12)CCCCC3 | inconclusive [activator, full curve, poor fit]
54 | O=[N+]([O-])c1ccc(S(=O)(=O)N(CC(O)CN2CCCCC2)c2ccccc2)cc1 (stereo unspecified) | inactive
55 | CCOC(=O)Cn1nc(/C=C/c2ccccc2)ccc1=O | inactive
56 | COc1cc(/C=C2\SC(N3CCC(C)CC3)=NC2=O)ccc1O | inactive
57 | CC(=O)c1c(C)[nH]c(C(=O)CSc2ccc(F)cc2)c1C | inconclusive [activator, single point]
58 | COc1ccc(CNC(=O)C2COc3ccccc3O2)cc1 (stereo unspecified) | inconclusive [activator, partial curve, poor fit]
59 | O=C(NNC(=S)Nc1ccccc1)c1cc(-c2cccnc2)nc2ccccc12 | inactive
60 | Cc1cc(=O)oc2cc(OCCc3ccccc3)ccc12 | inconclusive [activator, full curve, poor fit]
61 | Cc1[nH]c(C)c(S(=O)(=O)Nc2cccc(Cl)c2C)c1C(=O)N1CCCCC1 | inconclusive [activator, single point]
62 | CCC(=O)N1CCc2cc(Br)cc(S(=O)(=O)NCCN3CCCCC3CC)c21 (stereo unspecified) | inconclusive [activator, single point]
63 | c1cnc(Oc2ccc3oc4ccccc4c3c2)nc1 | inconclusive [activator, single point]
64 | CCOc1cc(C(=O)NC(CC(=O)O)c2ccc(OC3CCCC3)cc2)cc(OCC)c1OCC (stereo unspecified) | inactive
65 | COc1ccc2[nH]cc(CCNS(=O)(=O)Cc3ccccc3)c2c1 | inconclusive [activator, single point]
66 | CC(=O)Nc1nc(-c2ccc(Cl)cc2)ns1 | inconclusive [activator, partial curve, poor fit]
